# Experimental data reported in the RNAGym collection of RNA variant scans (doi:10.1093/nar/gkz1192).
# The source gives no read counts; variants with many changes may rest on few reads.
# B1: CPEB3 Ribozyme (parent)
# chain: UAACAGGGGGCCACAGCAGAAGCGUUCACGUCGCAGCCCCUGUCAGAUUCUGGUGAAUCUGCGAAUUCUGCUGUAUAUCUC
# Variants of: B1
# Experiment: self-cleavage, relative activity (ratio to wild type); higher = more cleavage; in vitro, sequencing
# Procedure, shortened: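 Libraries of CPEB3 self-cleaving ribozyme mutants came from rounds of error-prone PCR and carried barcodes, which DNA sequencing matched to variants. In vitro transcription used T7 RNA polymerase at 37°C for 5 hours, with a further 15 min in DNase I before EDTA stopped the reaction; the ribozymes cleaved during both steps. The RNA was reverse transcribed with template switching and sequenced on Illumina. Relative activity is the cleaved/total read fraction of a variant divided by that of the unmutated ribozyme, averaged over three batches with at least 5 reads.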
row,Variant,self-cleavage
1,UAACAGGGGGCCACAGCAGAAGCGUUCACGUCGCAGCCCCUGUCAGCUACUGGUGAAUCAGCGAGUUCUGCUGUAUAUCUC,0.14
2,UAACAGGGGGCCACAGCAGAAGCGUUCACGUCGCAGCCCCUGUCAGCUACUGGUGAAUCUGCGAAUUCUGCUGCAUAUCUC,0.23
3,UAACAGGGGGCCACAGCAGAAGCGUUCACGUCGCAGCCCCUGUCAGCUUCCGGUGAAUCUGCGAAUUCUGCUGUAUACCUC,0.26
4,UAACAGGGGGCCACAGCAGAAGCGUUCACGUCGCAGCCCCUGUCAGGUUCUGGUGCAUCUGCGUAUUCUGCUGUAUAUCCC,0.28
5,UAACAGGGGGCCACAGCAGAAGCGUUCACGUCGCAGCCCCUGUCAGGUUCUGGUGGAUCUGCGGACUCUGCUGUAUAUCUC,0.08
6,UAACAGGGGGCCACAGCAGAAGCGUUCACGUCGCAGCCCCUGUCAGGUUCUGGUGGAUCUGCGUAUUCUGCUGUAUAUCUC,0.2
7,UAACAGGGGGCCACAGCAGAAGCGUUCACGUCGCAGCCCCUGUCAGGUUCUGGUGGAUCUGCGUAUUCAGCUGUAAAUCUC,0.28
8,UAACAGGGGGCCACAGCAGAAGCGUUCACGUCGCAGCCCCUGUCAGGUUCUGGUGGAACUGCGAAUUCUGCCGUAUAUCUC,0.29
9,UAACAGGGGGCCACAGCAGAAGCGUUCACGUCGCAGCCCCUGUCAGGUUCUGGUGGAUCUGCGAAUUCCGCUGUAUACCUC,0.45
10,UAACAGGGGGCCACAGCAGAAGCGUUCACGUCGCAGCCCCUGUCAGGUUCUGGUGGAUCUGCGAAUUCUGCUGCAUAUCUC,1.13
11,UAACAGGGGGCCACAGCAGAAGCGUUCACGUCGCAGCCCCUGUCAGGUUCUGGUGUACCAGCGAAUUCUGCUGUAUAUCUC,0.17
12,UAACAGGGGGCCACAGCAGAAGCGUUCACGUCGCAGCCCCUGUCAGGUUCUGGUGUAUCUGCGAAUCCUGCUGUAUAUCUC,0.16
13,UAACAGGGGGCCACAGCAGAAGCGUUCACGUCGCAGCCCCUGUCAGGUUCUGGUGUAUCUGCGAAUUCUGCCGUAUAUCUC,0.63
14,UAACAGGGGGCCACAGCAGAAGCGUUCACGUCGCAGCCCCUGUCAGGUUCUGGUGAGUUUGCGAAUUCUGCUGAGUAUCUC,0.24
15,UAACAGGGGGCCACAGCAGAAGCGUUCACGUCGCAGCCCCUGUCAGGUUCUGGUGAGCCUGCGUAUUCUGCUGUAUAUCUC,0.48
16,UAACAGGGGGCCACAGCAGAAGCGUUCACGUCGCAGCCCCUGUCAGGUUCUGGUGAGUCUGCGAAUUCUGCAGCAUAUCUC,0.6
17,UAACAGGGGGCCACAGCAGAAGCGUUCACGUCGCAGCCCCUGUCAGGUUCUGGUGAGUCUGCGAAUUCUGCUGUAAAUCUC,0.56
18,UAACAGGGGGCCACAGCAGAAGCGUUCACGUCGCAGCCCCUGUCAGGUUCUGGUGAGUCUGCGAAUUCUGCUGUAUAUCAC,0.98
19,UAACAGGGGGCCACAGCAGAAGCGUUCACGUCGCAGCCCCUGUCAGGUUCUGGUGAUUCUGCGAAUUCUGCUGUAUAGCUC,0.22
20,UAACAGGGGGCCACAGCAGAAGCGUUCACGUCGCAGCCCCUGUCAGGUUCUGGUGAAUCUGCGGAUUCUGCUGUGUAUCUC,0.77
21,UAACAGGGGGCCACAGCAGAAGCGUUCACGUCGCAGCCCCUGUCAGGUUCUGGUGAAUCUGCGGAUUCGGCUGUAUAUCUC,0.28
22,UAACAGGGGGCCACAGCAGAAGCGUUCACGUCGCAGCCCCUGUCAGGUUCUGGUGAAUCUGCGGAUUCUGCUGUAUACCUC,0.76
23,UAACAGGGGGCCACAGCAGAAGCGUUCACGUCGCAGCCCCUGUCAGGUUCUGGUGAAUCUGCGUAUGCUGCUGUAUAUCUC,0.15

row,Variant,self-cleavage
1,UAACAGGGGGCCACAGCAGAAGCGUUCACGUCGCAGCCCCUGUCAGGUUCUGGUGAAUCUGCGAUCUCUGCUGUUUAUCUC,0.71
2,UAACAGGGGGCCACAGCAGAAGCGUUCACGUCGCAGCCCCUGUCAGGUUCUGGUGAAUCUGCGAUUUCUGCCGUAUAUCUC,0.18
3,UAACAGGGGGCCACAGCAGAAGCGUUCACGUCGCAGCCCCUGUCAGGUUCUGGUGAAUCUGCGAAUUCUGCUGUAUCUCCC,0.6
4,UAACAGGGGGCCACAGCAGAAGCGUUCACGUCGCAGCCCCUGUCAGGUUAUGGUGAAUCUGCGGAUUCUGCUGUAUAUCUC,0.22
5,UAACAGGGGGCCACAGCAGAAGCGUUCACGUCGCAGCCCCUGUCAGGUUUUGGUGAGUCUGCGAACUCUGCUGUAUAUCUC,0.17
6,UAACAGGGGGCCACAGCAGAAGCGUUCACGUCGCAGCCCCUGUCAGGUUCUGGUGAAUAUGCGAAUUCCGCUGUAUAUCUC,0.05
7,UAACAGGGGGCCACAGCAGAAGCGUUCACGUCGCAGCCCCUGUCAGGUUCUGGUGAAUAUGCGAAUUCUGCAGUAUAUCUC,0.21
8,UAACAGGGGGCCACAGCAGAAGCGUUCACGUCGCAGCCCCUGUCAGGUUCUGGUGAAUCUGUGGAUUCUGCUGUAUAUCUC,0.25
9,UAACAGGGGGCCACAGCAGAAGCGUUCACGUCGCAGCCCCUGUCAGGUUCUGGUGAAUCUGUGUACUCUGCUGUAUACCUC,0.15
10,UAACAGGGGGCCACAGCAGAAGCGUUCACGUCGCAGCCCCUGUCAGGUUCUGGUGAAUCUGUGAAUUCUGAUGUAUAUCUC,0.29
11,UAACAGGGGGCCACAGCAGAAGCGUUCACGUCGCAGCCCCUGUCAGGUUCUGGUGAAUCUGCGAAUUCUGAUGUAUAUCAC,0.35
12,UAACAGGGGGCCACAGCAGAAGCGUUCACGUCGCAGCCCCUGUCAGGUUCUAGUGAAUCUGCGAAUUCUGCUGUAAAUCUC,1.25
13,UAACAGGGGGCCACAGCAGAAGCGUUCACGUCGCAGCCCCUGUCAGGUUCUCGUGAAUCUCCGAAUUCUGCUGUAUAUCUC,0.27
14,UAACAGGGGGCCACAGCAGAAGCGUUCACGUCGCAGCCCCUGUCAGGUUCUGAUGAAUCUGCGAAUUCGGCUGUAUAUCUC,0.97
15,UAACAGGGGGCCACAGCAGAAGCGUUCACGUCGCAGCCCCUGUCAGGUUCUGGUCAAUCUGCGAAUCCUGCUGAAUAUCUC,0.15
16,UAACAGGGGGCCACAGCAGAAGCGUUCACGUCGCAGCCCCUGUCAGGUUCUGGUGAAUCUCCGAAUUCCGCUGUAUCUCUC,0.29
17,UAACAGGGGGCCACAGCAGAAGCGUUCACGUCGCAGCCCCUGUCAGGUUCUGGUGAAUCUGCAAUUUCUGCUGUAUAUCUC,0.49
18,UAACAGGGGGCCACAGCAGAAGCGUUCACGUCGCAGCCCCUGUCAGGUUCUGGUGAAUCUGCCAAUUCUGCCGUAUAUCUC,1.09
19,UAACAGGGGGCCACAGCAGAAGCGUUCACGUCGCAGCCCCUGUCAGGUUCUGGUGAAUCUGCUAAUGCUGCUGUUUACCUC,0.17
20,UAACAGGGGGCCACAGCAGAAGCGUUCACGUCGCAGCCCCUGUCAGGUUCUGGUGAAUCUGCGAAUUCUGCUAUAUGUCUC,1.31
21,UAACAGGGGGCCACAGCAGAAGCGUUCACGUCGCAGCCCCUGUCAGGCUCUGGUGGAUCUGCGAAUUCUGCUGUAUACCUC,0.17
22,UAACAGGGGGCCACAGCAGAAGCGUUCACGUCGCAGCCCCUGUCAGGCUCUGGUGAAUCUGCGUAUUCUGCUGUAUAUCUC,0.12
23,UAACAGGGGGCCACAGCAGAAGCGUUCACGUCGCAGCCCCUGUCAGGCUCUGGUGAAUCUGUGAAUUCUGCAGUAUAUCUC,0.1

row,Variant,self-cleavage
1,UAACAGGGGGCCACAGCAGAAGCGUUCACGUCGCAGCCCCUGUCAGGCCCUGGUGAAUCUGCGAAUUCUGCUGUAUAUCUC,0.3
2,UAACAGGGGGCCACAGCAGAAGCGUUCACGUCGCAGCCCCUGUCAGGCUCAGGUGAAUCUGCGAAUUCUGCUGUAUGUCUC,0.13
3,UAACAGGGGGCCACAGCAGAAGCGUUCACGUCGCAGCCCCUGUCAGGCUCUGGCGAAUCUGCGAAUCCUGCUGUAUAUCUC,0.11
4,UAACAGGGGGCCACAGCAGAAGCGUUCACGUCGCAGCCCCUGUCAGGCUCUGGCGAAUCUGCGAAUUCUGCUGUAUAGCUC,0.18
5,UAACAGGGGGCCACAGCAGAAGCGUUCACGUCGCAGCCCCUGUCAGGCUCUGGUGAAUCAGCGAAUUCUGCUGUAUAUCUC,0.34
6,UAACAGGGGGCCACAGCAGAAGCGUUCACGUCGCAGCCCCUGUCAGGCUCUGGUGAAUCUGCGAACUCUGCUGUAUAUCUC,0.11
7,UAACAGGGGGCCACAGCAGAAGCGUUCACGUCGCAGCCCCUGUCAGGCUCUGGUGAAUCUGCGAAUACUGCUGUAUAUCUC,0.05
8,UAACAGGGGGCCACAGCAGAAGCGUUCACGUCGCAGCCCCUGUCAGGCUCUGGUGAAUCUGCGAAUUCCGCUGUAUAUCUC,0.16
9,UAACAGGGGGCCACAGCAGAAGCGUUCACGUCGCAGCCCCUGUCAGGUACUGGAGAACCUGCGAUUUCUGCUGUAUAUCUC,0.17
10,UAACAGGGGGCCACAGCAGAAGCGUUCACGUCGCAGCCCCUGUCAGGUACUGGUGAAUCAGCGAAUUCUGCUGUAUAUCUC,0.16
11,UAACAGGGGGCCACAGCAGAAGCGUUCACGUCGCAGCCCCUGUCAGGUACUGGUGAAUCUGCGAAAUCUGCUGUAUAUCUC,0.17
12,UAACAGGGGGCCACAGCAGAAGCGUUCACGUCGCAGCCCCUGUCAGGUACUGGUGAAUCUGCGAACUCUGCUGUAUAUCUC,0.29
13,UAACAGGGGGCCACAGCAGAAGCGUUCACGUCGCAGCCCCUGUCAGGUCCUGGUGAAUCUGCGUAUUCUGCUGUAUAUCUC,0.23
14,UAACAGGGGGCCACAGCAGAAGCGUUCACGUCGCAGCCCCUGUCAGGUCCUGGUAAAUCUGCGAGUCCUGCUGUAUAUCUC,0.05
15,UAACAGGGGGCCACAGCAGAAGCGUUCACGUCGCAGCCCCUGUCAGGUCCAGGUGAAUCUGCGAAUUCUGCUGUAUAUCUC,0.31
16,UAACAGGGGGCCACAGCAGAAGCGUUCACGUCGCAGCCCCUGUCAGGUCCUGGUGAAUCCGUGAACUCUGCUGUAUAUCUC,0.07
17,UAACAGGGGGCCACAGCAGAAGCGUUCACGUCGCAGCCCCUGUCAGGUCCUGGUGAAUCUGCGAAUUCUGCUGUAUAUCAC,0.43
18,UAACAGGGGGCCACAGCAGAAGCGUUCACGUCGCAGCCCCUGUCAGGUGCUGGUGAAUCUGCGAAUUCUGCUGUAUAUCCC,0.17
19,UAACAGGGGGCCACAGCAGAAGCGUUCACGUCGCAGCCCCUGUCAGGUUCAGGUGAAUCUGCGAAUUCUCCUGUAUAUCUC,0.22
20,UAACAGGGGGCCACAGCAGAAGCGUUCACGUCGCAGCCCCUGUCAGGUUCCGGUGUAUCCGCGAAUUCCGCUGUACAUCUC,0.13
21,UAACAGGGGGCCACAGCAGAAGCGUUCACGUCGCAGCCCCUGUCAGGUUCCGGUGAAUCUGCGUAUUCUGCUGUAUAUCUC,0.29
22,UAACAGGGGGCCACAGCAGAAGCGUUCACGUCGCAGCCCCUGUCAGGUUCCGGUGAAUCUGCGAGUUCUGCUGUAUAUCUC,0.41
